Results are given in words; binding and its absence hold for the method and conditions named. Binding seen in cells or lysates may run through a third protein. Some binding calls cover weakened binding; strength is not graded here.
Columns and labels:
GST-SMAD4 = GST-SMAD4 (UniProt Q13485); test: pull-down; GST or GST fusion proteins bound to glutathione agarose beads, incubated 3 h with 293T protein extracts holding 6Myc-tagged ETV1 constructs; 20 mM HEPES pH 7.4, 25 mM NaCl, 0.01% Tween-20, 1 mM DTT; anti-Myc western blot; only the target purified
Flag-tagged SMAD1 = Flag-tagged SMAD1 (UniProt Q15797); test: co-IP; 6Myc-ETV1 coexpressed with Flag-tagged SMAD proteins in 293T cells; IP with anti-Flag antibodies, anti-Myc western blot; lysis and washes in 50 mM Tris-HCl pH 7.4, 150 mM NaCl, 50 mM NaF, 0.5% Igepal CA-630, 0.1 mM DTT
Flag-tagged SMAD2 = Flag-tagged SMAD2 (UniProt Q15796); test: as above
Flag-tagged SMAD3 = Flag-tagged SMAD3 (UniProt P84022); test: as above
Flag-tagged SMAD4 = Flag-tagged SMAD4 (UniProt Q13485); test: as above

Sequences of proteins named here, by UniProt entry; tags and fusion partners are left off. A change or cut given only in a name is not applied to a line headed by its entry.
UniProt Q13485: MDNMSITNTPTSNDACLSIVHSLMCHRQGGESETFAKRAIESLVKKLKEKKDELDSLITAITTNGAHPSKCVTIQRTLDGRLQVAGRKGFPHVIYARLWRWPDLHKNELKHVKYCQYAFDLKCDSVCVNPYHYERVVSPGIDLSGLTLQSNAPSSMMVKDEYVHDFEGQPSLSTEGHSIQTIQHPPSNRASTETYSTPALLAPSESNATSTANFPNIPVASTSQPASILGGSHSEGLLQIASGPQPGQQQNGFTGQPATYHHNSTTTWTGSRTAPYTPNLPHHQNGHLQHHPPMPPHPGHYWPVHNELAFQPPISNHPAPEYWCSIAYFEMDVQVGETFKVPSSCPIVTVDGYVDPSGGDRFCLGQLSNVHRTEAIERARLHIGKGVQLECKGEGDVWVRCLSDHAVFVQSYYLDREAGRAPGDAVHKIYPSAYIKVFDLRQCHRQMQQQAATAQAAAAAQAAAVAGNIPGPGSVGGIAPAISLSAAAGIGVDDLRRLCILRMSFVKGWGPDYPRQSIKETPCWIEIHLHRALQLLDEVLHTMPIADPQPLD
UniProt Q15797: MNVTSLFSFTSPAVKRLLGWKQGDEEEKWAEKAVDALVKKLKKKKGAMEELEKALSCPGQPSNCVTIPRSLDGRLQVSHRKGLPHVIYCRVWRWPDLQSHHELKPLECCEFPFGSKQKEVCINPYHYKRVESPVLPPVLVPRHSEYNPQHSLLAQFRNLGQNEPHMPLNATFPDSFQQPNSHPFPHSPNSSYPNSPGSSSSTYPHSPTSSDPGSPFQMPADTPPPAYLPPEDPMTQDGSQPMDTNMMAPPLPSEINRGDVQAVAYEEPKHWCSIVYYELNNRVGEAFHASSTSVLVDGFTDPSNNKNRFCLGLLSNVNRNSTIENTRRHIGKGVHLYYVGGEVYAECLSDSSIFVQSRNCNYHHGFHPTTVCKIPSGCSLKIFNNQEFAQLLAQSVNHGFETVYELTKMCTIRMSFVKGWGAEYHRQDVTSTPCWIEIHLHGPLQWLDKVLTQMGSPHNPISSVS
UniProt Q15796: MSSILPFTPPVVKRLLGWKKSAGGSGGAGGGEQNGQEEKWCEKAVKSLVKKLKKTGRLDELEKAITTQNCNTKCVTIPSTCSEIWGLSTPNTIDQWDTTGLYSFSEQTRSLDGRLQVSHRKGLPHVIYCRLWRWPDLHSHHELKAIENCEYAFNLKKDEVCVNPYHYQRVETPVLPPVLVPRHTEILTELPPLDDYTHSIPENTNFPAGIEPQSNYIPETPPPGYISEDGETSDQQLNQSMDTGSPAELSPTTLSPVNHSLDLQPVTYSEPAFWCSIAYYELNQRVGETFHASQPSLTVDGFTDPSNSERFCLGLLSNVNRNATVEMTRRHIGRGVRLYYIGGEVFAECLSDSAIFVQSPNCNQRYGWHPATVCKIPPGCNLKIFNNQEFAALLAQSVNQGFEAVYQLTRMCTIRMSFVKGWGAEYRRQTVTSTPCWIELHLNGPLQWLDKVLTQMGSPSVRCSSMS
UniProt P84022: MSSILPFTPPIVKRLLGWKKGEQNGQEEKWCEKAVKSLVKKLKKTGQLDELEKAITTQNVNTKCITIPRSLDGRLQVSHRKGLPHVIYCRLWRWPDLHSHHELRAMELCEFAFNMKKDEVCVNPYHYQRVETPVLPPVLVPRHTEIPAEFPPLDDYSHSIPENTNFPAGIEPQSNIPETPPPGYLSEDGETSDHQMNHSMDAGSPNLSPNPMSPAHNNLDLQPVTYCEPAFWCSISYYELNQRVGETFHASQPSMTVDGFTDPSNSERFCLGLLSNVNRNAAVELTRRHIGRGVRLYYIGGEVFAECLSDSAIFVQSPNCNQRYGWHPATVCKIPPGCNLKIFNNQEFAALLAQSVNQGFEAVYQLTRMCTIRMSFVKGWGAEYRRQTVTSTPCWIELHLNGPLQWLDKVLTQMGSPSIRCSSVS
UniProt P50549: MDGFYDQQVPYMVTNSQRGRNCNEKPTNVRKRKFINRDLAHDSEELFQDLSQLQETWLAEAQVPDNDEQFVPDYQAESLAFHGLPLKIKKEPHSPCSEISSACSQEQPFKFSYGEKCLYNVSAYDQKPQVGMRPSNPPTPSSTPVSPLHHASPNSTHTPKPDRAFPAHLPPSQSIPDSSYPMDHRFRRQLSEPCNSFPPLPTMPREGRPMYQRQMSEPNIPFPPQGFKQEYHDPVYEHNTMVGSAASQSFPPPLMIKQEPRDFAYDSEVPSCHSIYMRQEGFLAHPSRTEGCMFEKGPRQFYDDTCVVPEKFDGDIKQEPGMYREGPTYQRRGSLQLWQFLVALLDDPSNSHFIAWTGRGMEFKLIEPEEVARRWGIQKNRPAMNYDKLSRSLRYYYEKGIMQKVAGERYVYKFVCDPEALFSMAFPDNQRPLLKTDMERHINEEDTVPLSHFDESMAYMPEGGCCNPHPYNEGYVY

Substance	binding (GST-SMAD4)	other results
6Myc-tagged ETV1 2-429 (from UniProt P50549 2-429) (domain or fragment)	binds	
6Myc-tagged ETV1 182-477 (from UniProt P50549 182-477) (domain or fragment)	binds	
6Myc-tagged ETV1 249-383 (from UniProt P50549 249-383) (domain or fragment)	no binding	
6Myc-tagged ETV1 249-429 (from UniProt P50549 249-429) (domain or fragment)	binds	
6Myc-tagged ETV1 249-477 (from UniProt P50549 249-477) (domain or fragment)	binds	
6Myc-tagged ETV1 333-477 (from UniProt P50549 333-477) (domain or fragment)	no binding	
6Myc-tagged ETV1 (from UniProt P50549 1-477)	binds	binding (Flag-tagged SMAD1): no binding; binding (Flag-tagged SMAD2): no binding; binding (Flag-tagged SMAD3): no binding; binding (Flag-tagged SMAD4): binds
6Myc-tagged ETV1 truncated from the C-terminus down to amino acid 249 (from UniProt P50549 1-249) (domain or fragment)	no binding	
6Myc-tagged ETV1 truncated from the C-terminus down to amino acid 333 (from UniProt P50549 1-333) (domain or fragment)	no binding	

Reference: paper PMC6546734
